Assay results published in the supplement of paper PMC4723716.
Values joined by “and” are separate entries in the source; they are usually repeats but may differ in a detail not shown here. Identical values can stand only once. ± gives the uncertainty stated by the source. Whole data set: some 9,900 compounds, median “viability index relative to DMSO control” near 1, cut for the lowest 2% near 0.85. This is one part of the list.

Test system: Plasmodium falciparum NF54 stage V gametocytes
Experiment: viability index relative to DMSO control (fraction); higher = less gametocyte killing
Conditions: 2.5 µM, library set: Broad Institute DOS, incubation time: 72 h
In short: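 In 1,536-well plates, 10 µl of serum-free medium holding P. falciparum NF54 stage V gametocytes (0.75% gametocytemia, 1.25% hematocrit) received compound at 2.5 µM for 72 hr at 37°C in low oxygen. After one to two hours with 3 µl of 2.5 µM MitoTracker Red CMXRos containing 0.13% saponin, red particles of 20–70 µm2 were counted in a single field per well. Viability index is reported as the particle count over the plate mean of wells treated with solvent only.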

| SMILES | viability index |
| --- | --- |
| OC[C@@H]1[C@H](c2ccc(C#Cc3ccccc3F)cc2)[C@H]2CN(CC3CCOCC3)CCCCN12 | 0.971 ± 0.014 |
| CO[C@H](CN(C)S(=O)(=O)c1ccc(C)cc1)[C@@H](C)CN([C@@H](C)CO)S(=O)(=O)c1cccc(Cl)c1 | 1.03 ± 0.042 |
| Cc1noc(C)c1NC(=O)N1C[C@@H](O)COC[C@H]2O[C@H](CC(=O)N[C@H]3CCN(Cc4ccccc4)C3)CC[C@@H]21 | 1.03 ± 0.011 |
| O=C(Cc1cccnc1)N1CC(=O)N2[C@H](CO)[C@H](c3ccc(C#CC4CCCCC4)cc3)[C@H]2C1 | 0.801 ± 0.073 |
| C[C@@H]1CN([C@H](C)CO)C(=O)c2cccc(NC(=O)C3CCOCC3)c2O[C@H]1CN(C)C(=O)Nc1cccc2ccccc12 | 0.974 ± 0.032 |
| Cc1ccc(S(=O)(=O)N[C@H]2CC[C@@H](CC(=O)NCc3ccncn3)O[C@H]2CO)cc1 | 0.946 ± 0.061 |
| COCC(=O)N1[C@@H](CO)[C@@H]2c3ccccc3N(C)C[C@@H]21 | 1.02 ± 0.027 |
| COc1cccc(NC(=O)N2[C@@H]3CNC[C@H]2[C@@H]3c2ccc(-c3ccncc3)cc2)c1 | 1.05 ± 0.024 |
| CCS(=O)(=O)Nc1ccc2c(c1)C(=O)N(C)C[C@H](OC)[C@H](C)CN(CC1CCCCC1)[C@@H](C)CO2 | 1.007 ± 0.008 |
| C/C=C/c1ccc([C@H]2[C@@H](CO)N3CCCCN(C(=O)c4ccc(F)cc4)C[C@@H]23)cc1 | 1.09 ± 0.11 |
| COCc1cn(CC[C@H]2CC[C@@H](NC(=O)Nc3c(C)noc3C)[C@@H](CO)O2)nn1 | 0.947 ± 0.11 |
| C[C@H](CO)N1C[C@H](C)[C@@H](CN(C)Cc2ccc(F)cc2)Oc2cc(C#CC(C)(C)O)ccc2S1(=O)=O | 0.92 ± 0.078 |
| O=C(c1ccccc1F)N1C[C@H]2[C@@H](c3ccccc31)[C@H](CO)N2C(=O)Nc1ccccc1 | 1.09 ± 0.11 |
| COC(=O)[C@@H]1[C@@H](CO)[C@@H]2Cn3c(ccc(-c4cncnc4)c3=O)[C@@H]2N1CCC(F)(F)F | 0.964 ± 0.049 |
| O=C(C[C@@H]1CC[C@@H]2[C@H](COC[C@H](O)CN2C(=O)c2ccc(F)cc2)O1)N1CCCCC1 | 1.03 ± 0.045 |
| C[C@@H]1CCCCO[C@H](CN(C)CC2CC2)[C@H](C)CN([C@@H](C)CO)C(=O)c2cc(NC(=O)c3ccccc3)ccc2O1 | 1.05 ± 0.044 |
| O=C(Nc1ccc(F)cc1)N1[C@H](CO)[C@@H]2c3ccccc3NC[C@@H]21 | 1.01 ± 0.14 |
| N#C[C@@H]1[C@@H](c2ccc(-c3cccc(F)c3)cc2)[C@H](CO)N1c1nc(-c2ccccc2)cs1 | 1.11 ± 0.035 |
| C[C@@H]1CN([C@H](C)CO)C(=O)Cc2cc(NC(=O)Nc3ccc(F)cc3)ccc2O[C@@H]1CN(C)S(C)(=O)=O | 1.04 ± 0.041 |
| CNC[C@@H]1OCCCC[C@@H](C)Oc2ccc(NS(=O)(=O)c3ccc(F)cc3)cc2C(=O)N([C@@H](C)CO)C[C@H]1C | 1.1 ± 0.013 |
| CCC(=O)N[C@@H]1CC[C@H](CC(=O)NCc2ccccc2F)O[C@H]1CO | 1.12 ± 0.032 |
| COc1cccc(S(=O)(=O)N(C)C[C@H]2Oc3cc(Br)ccc3S(=O)(=O)N([C@@H](C)CO)C[C@H]2C)c1 | 0.978 ± 0.026 |
| COc1ccc([C@H]2C/C=C\C[C@@H](c3ccc4c(c3)OCO4)NC(=O)CCC(=O)N2)c(OC)c1 | 1.03 ± 0.015 |

| SMILES | viability index |
| --- | --- |
| CCS(=O)(=O)NCC[C@H]1CC[C@H](NC(=O)Nc2cc(Cl)cc(Cl)c2)[C@@H](CO)O1 | 1.147 ± 0.0024 |
| O=S(=O)(c1ccc(F)cc1)N1C[C@@H]2N[C@H](C1)[C@@H]2c1ccc(/C=C/c2ccccc2)cc1 | 0.78 ± 0.029 |
| C[C@H](CO)N1C[C@H](C)[C@@H](CN(C)C(=O)c2ccncc2)OCCCC[C@H](C)Oc2ccc(NC(=O)CCC(F)(F)F)cc2C1=O | 1.08 ± 0.041 |
| COc1ccc2c3c([nH]c2c1)[C@H](CO)N(Cc1nccs1)C[C@]31CCN(CC1)C(=O)C1CCCCC1 | 0.983 ± 0.095 |
| C[C@@H]1CN([C@H](C)CO)C(=O)CCCn2cc(nn2)CO[C@@H]1CN(C)C(=O)CCC(F)(F)F | 1.06 ± 0.031 |
| COc1ccc2c3c([C@H](CO)N(CC4CCCC4)C[C@]33CN(C3)C(=O)Nc3ccccc3)n(C)c2c1 | 1.11 ± 0.062 |
| NCC[C@H]1CC[C@@H](NS(=O)(=O)c2ccc(Cl)cc2)[C@@H](CO)O1 | 1.11 and 1.16 |
| CO[C@@H]1CN(C)C(=O)c2cc(NC(=O)Nc3c(C)noc3C)ccc2OC[C@H](C)NC[C@@H]1C | 1.03 ± 0.053 |
| O=C(C[C@H]1C=C[C@@H](NS(=O)(=O)c2ccccc2)[C@@H](CO)O1)NCCN1CCCCC1 | 1.12 ± 0.12 |
| CC(C)NC(=O)Nc1ccc2c(c1)C(=O)N([C@H](C)CO)C[C@H](C)[C@@H](CN(C)C(=O)C1CCCCC1)OCCCC[C@@H](C)O2 | 1.049 ± 0.0083 |
| O=C(Nc1ccc(C(F)(F)F)cc1)Nc1ccc2c(c1)[C@H]1C[C@@H](CC(=O)N3CCc4ccccc4C3)O[C@@H](CO)[C@H]1O2 | 1.03 ± 0.058 |
| CO[C@H]1CN(C)C(=O)c2ccc(NC(=O)C3CCC3)cc2OC[C@H](C)N(Cc2ccccn2)C[C@@H]1C | 1.04 and 1.1 |
| COc1cccc(S(=O)(=O)N(C)C[C@H]2OCc3ccccc3-c3c(n(C)c4ccccc34)C(=O)N([C@H](C)CO)C[C@H]2C)c1 | 0.952 ± 0.034 |
| CN1C(=O)c2cc(NC(=O)Nc3ccccc3Cl)ccc2OC[C@H]2O[C@H](CC(=O)O)CC[C@@H]21 | 0.98 ± 0.064 |
| CO[C@@H]1CN(C)C(=O)c2ccc(NC(=O)NC(C)C)cc2OC[C@H](C)N(Cc2ccc(-c3ccccn3)cc2)C[C@H]1C | 1.09 ± 0.021 |
| C[C@@H]1CN([C@@H](C)CO)C(=O)c2cc(NC(=O)Nc3ccc4c(c3)OCO4)ccc2O[C@@H](C)CCCCO[C@H]1CN(C)S(=O)(=O)c1ccccc1 | 0.99 ± 0.042 |
| C[C@H](NC(=O)C[C@@H]1CC[C@H]2[C@@H](COC[C@@H](O)CN2C(=O)Nc2cccc(Cl)c2)O1)c1ccccc1 | 1 ± 0.064 |
| CCC(=O)N1[C@H](CO)[C@H](c2ccc(C3=CCCC3)cc2)C12CN(C(=O)COC)C2 | 1.12 ± 0.033 |
| CNC[C@@H]1OCCCC[C@@H](C)Oc2ccc(N)cc2C(=O)N([C@H](C)CO)C[C@H]1C | 1.11 ± 0.19 |
| CCC(=O)N1CC(=O)N2[C@H](CO)[C@@H](c3ccc(-c4ccc(C#N)cc4)cc3)[C@@H]2C1 | 0.946 ± 0.014 |
| COc1ccccc1NC(=O)N1C[C@@H](O)COC[C@@H]2O[C@H](CC(=O)NCCc3ccncc3)CC[C@H]21 | 1.06 ± 0.022 |
| COCC(=O)NC[C@H]1[C@H](c2ccccc2)[C@H](CO)N1C(=O)c1ccccc1 | 1.1 ± 0.017 |
| CO[C@@H](CN(C)C(=O)C1CCOCC1)[C@H](C)CN(C(=O)Nc1ccc(C(F)(F)F)cc1)[C@@H](C)CO | 1.06 ± 0.085 |

| SMILES | viability index |
| --- | --- |
| CC(C)NC(=O)N1CC(=O)N2[C@H](C1)[C@@H](c1ccc(/C=C/c3ccccc3)cc1)[C@@H]2CO | 1.12 ± 0.00062 |
| C[C@@H]1CN([C@@H](C)CO)C(=O)c2cc(NS(=O)(=O)c3ccccc3)ccc2O[C@@H](C)CCCCO[C@@H]1CN(C)C(=O)C1CCCCC1 | 1.11 ± 0.056 |
| CO[C@H](CN(C)Cc1nccs1)[C@H](C)CN([C@H](C)CO)S(=O)(=O)c1ccc(F)cc1 | 1.03 ± 0.0069 |
| C[C@H](NC(=O)C[C@H]1CC[C@@H]2[C@@H](COc3ccc(NC(=O)C4CCOCC4)cc3C(=O)N2C)O1)c1ccccc1 | 1.13 ± 0.19 |
| O=C(C[C@H]1C[C@@H]2c3cc(NC(=O)c4ccc5c(c4)OCO5)ccc3O[C@@H]2[C@@H](CO)O1)NCCN1CCCCC1 | 1.06 ± 0.078 |
| C[C@H](CO)N1C[C@H](C)[C@@H](CN(C)S(=O)(=O)c2cn(C)cn2)Oc2cc(C#Cc3cccc(F)c3)ccc2S1(=O)=O | 1.05 ± 0.09 |
| CC(C)CC#Cc1ccc([C@@H]2[C@H]3CN(C(=O)Nc4ccccc4)CCCCN3[C@H]2CO)cc1 | 0.542 ± 0.086 |
| C[C@@H](NC(=O)C[C@H]1C=C[C@H](NC(=O)c2cccnc2)[C@@H](CO)O1)c1ccccc1 | 0.909 ± 0.047 |
| CN1C(=O)c2cc(NC(=O)c3ccc(F)c(F)c3)ccc2OC[C@@H]2O[C@@H](CC(=O)N3CCCCC3)CC[C@H]21 | 0.912 ± 0.078 |
| CO[C@@H]1CN(C)C(=O)c2ccc(NC(=O)CN(C)C)cc2OC[C@@H](C)N(C(=O)C2CCCCC2)C[C@H]1C | 1.092 ± 0.0038 |
| CN1C(=O)c2cc(NC(=O)Cc3cccs3)ccc2OC[C@H]2O[C@@H](CC(=O)N[C@H]3CCN(Cc4ccccc4)C3)CC[C@@H]21 | 1.11 ± 0.072 |
| O=C(c1ccncc1)N1C[C@@H]2[C@H](c3ccccc31)[C@H](CO)N2C(=O)CN1CCOCC1 | 1.07 ± 0.073 |
| CO[C@H]1CC[C@H]2CCOc3c(C#N)cccc3C(=O)N(C)C[C@@H](OC)[C@H](C)C(=O)N(C)C[C@H]1O2 | 1.1 ± 0.016 |
| COc1ccc(CN2C[C@H](O)COC[C@@H]3O[C@@H](CC(=O)N(C)C)CC[C@H]32)cc1 | 1.048 ± 0.0099 |
| COc1ccc(NC(=O)N(C)C[C@@H]2Oc3c(NC(=O)CCCCCC(=O)Nc4ccccc4N)cccc3C(=O)N([C@@H](C)CO)C[C@@H]2C)cc1 | 0.943 ± 0.058 |
| Cc1ccccc1S(=O)(=O)N1CC[C@@H]2[C@H]1c1cc(-c3cccc(F)c3)ccc1N(C)[C@H]2CO | 0.938 ± 0.1 |
| CNC[C@H]1Oc2ccc(NS(=O)(=O)c3ccc(OC)cc3)cc2C(=O)N([C@@H](C)CO)C[C@@H]1C | 1.01 ± 0.011 |
| COc1ccc(S(=O)(=O)Nc2ccc3c(c2)OC[C@@H](C)NC[C@H](C)[C@H](OC)CN(C)C3=O)cc1 | 1.013 ± 0.0035 |
| C[C@H]1CCCCO[C@H](CN(C)Cc2ccncc2)[C@@H](C)CN([C@@H](C)CO)C(=O)c2cc(NC(=O)Cc3ccccc3)ccc2O1 | 1.12 ± 0.013 |
| O=C(C1CCCCC1)N1CC(=O)N2[C@H](C1)[C@@H](c1ccc(-c3ccccc3F)cc1)[C@@H]2CO | 1.01 ± 0.092 |
| CCC(=O)Nc1ccc2c(c1)C(=O)N(C)C[C@@H](OC)[C@@H](C)CN(C(=O)Cc1cccnc1)[C@@H](C)CO2 | 1.04 ± 0.045 |
| CN1C(=O)c2cc(NC(=O)c3cccc(C(F)(F)F)c3)ccc2OC[C@@H]2O[C@H](CC(=O)NCCN3CCCC3)CC[C@@H]21 | 1.09 ± 0.12 |
| COc1ccccc1S(=O)(=O)N1CC[C@@H]2[C@H]1c1cc(-c3ccc(C#N)cc3)ccc1N[C@@H]2CO | 1 ± 0.15 |
